# Laboratory results from the supplement of paper PMC8728848.
# This is one part of the list.
# Columns and labels:
# Experiment in all cases: glycan array binding signal (z-score within array); higher = stronger binding
# Settings in all cases: glycan notation: IUPAC condensed, linker removed
# [1] = target: Fuc(a1-2)[GalNAc(a1-3)]Gal(b1-4)[Fuc(a1-3)]GlcNAc
# Outline: (§1)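 The binding signal is a Z-score computed within each array and averaged over linkers. Arrays of the same protein sequence at different concentrations or buffers were also averaged together. Data originate from 3228 arrays in the Consortium for Functional Glycomics database, kept only where the protein sequence was available.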
# [2] = target: Fuc(a1-2)[GalNAc(a1-4)]Gal(b1-4)GlcNAc
# Outline: as §1
# [3] = target: Fuc(a1-2)[GalNAc(b1-3)]Gal
# Outline: as §1
# [4] = target: Fuc(a1-3)GlcNAc
# Outline: as §1
# [5] = target: Fuc(a1-3)[Gal(b1-4)]Glc6S
# Outline: as §1
# [6] = target: Fuc(a1-3)[Gal(b1-4)]GlcNAc
# Outline: as §1
# [7] = target: Fuc(a1-3)[Gal(b1-4)]GlcNAc(b1-2)Man(a1-3)[Fuc(a1-3)[Gal(b1-4)]GlcNAc(b1-2)Man(a1-6)]Man(b1-4)GlcNAc(b1-4)GlcNAc
# Outline: as §1
# [8] = target: Fuc(a1-3)[Gal(b1-4)]GlcNAc(b1-2)Man(a1-6)[Gal(b1-4)GlcNAc(b1-2)Man(a1-3)]Man(b1-4)GlcNAc(b1-4)GlcNAc
# Outline: as §1
# [9] = target: Fuc(a1-3)[Gal(b1-4)]GlcNAc(b1-3)Gal(b1-3)[Fuc(a1-4)]GlcNAc
# Outline: as §1
# [10] = target: Fuc(a1-3)[Gal(b1-4)]GlcNAc(b1-4)Gal(b1-4)[Fuc(a1-3)]GlcNAc
# Outline: as §1
# [11] = target: Fuc(a1-3)[Gal(b1-4)]GlcNAc(b1-4)Gal(b1-4)[Fuc(a1-3)]GlcNAc(b1-4)Gal(b1-4)[Fuc(a1-3)]GlcNAc
# Outline: as §1
# [12] = target: Fuc(a1-3)[Gal(b1-4)]GlcNAc6S
# Outline: as §1
# [13] = target: Fuc(a1-3)[Gal3S(b1-4)]Glc6S
# Outline: as §1
# [14] = target: Fuc(a1-3)[Gal3S(b1-4)]GlcNAc
# Outline: as §1
# [15] = target: Fuc(a1-3)[Gal3S(b1-4)]GlcNAc6S
# Outline: as §1
# [16] = target: Fuc(a1-3)[GalNAc(b1-4)]GlcNAc
# Outline: as §1
# [17] = target: Fuc(a1-4)GlcNAc
# Outline: as §1
# [18] = target: Fuc(b1-3)GlcNAc
# Outline: as §1
# [19] = target: Gal(a1-2)Gal
# Outline: as §1
# [20] = target: Gal(a1-3)Gal
# Outline: as §1
# [21] = target: Gal(a1-3)Gal(b1-3)GlcNAc
# Outline: as §1
# [22] = target: Gal(a1-3)Gal(b1-4)Glc
# Outline: as §1
# [23] = target: Gal(a1-3)Gal(b1-4)GlcNAc
# Outline: as §1
# [24] = target: Gal(a1-3)Gal(b1-4)[Fuc(a1-3)]GlcNAc
# Outline: as §1
# [25] = target: Gal(a1-3)GalNAc
# Outline: as §1
# [26] = target: Gal(a1-3)[Gal(a1-4)]Gal(b1-4)GlcNAc
# Outline: as §1
# [27] = target: Gal(a1-4)Gal(b1-4)Glc
# Outline: as §1
# [28] = target: Gal(a1-4)Gal(b1-4)GlcNAc
# Outline: as §1
# [29] = target: Gal(a1-4)GlcNAc
# Outline: as §1
# [30] = target: Gal(a1-6)Glc
# Outline: as §1
# [31] = target: Gal(b1-2)Gal
# Outline: as §1
# [32] = target: Gal(b1-3)Gal
# Outline: as §1
# [33] = target: Gal(b1-3)Gal(b1-4)GlcNAc
# Outline: as §1
# [34] = target: Gal(b1-3)GalNAc
# Outline: as §1
# [35] = target: Gal(b1-3)GalNAc(b1-3)Gal(a1-4)Gal(b1-4)Glc
# Outline: as §1
# [36] = target: Gal(b1-3)GalNAc(b1-4)Gal(b1-4)Glc
# Outline: as §1
# [37] = target: Gal(b1-3)GalNAc(b1-4)[Neu5Ac(a2-3)]Gal(b1-4)Glc
# Outline: as §1
# [38] = target: Gal(b1-3)GlcNAc
# Outline: as §1
# [39] = target: Gal(b1-3)GlcNAc(b1-2)Man(a1-3)[Gal(b1-3)GlcNAc(b1-2)Man(a1-6)]Man(b1-4)GlcNAc(b1-4)GlcNAc
# Outline: as §1
# [40] = target: Gal(b1-3)GlcNAc(b1-3)Gal(b1-3)GlcNAc
# Outline: as §1
# [41] = target: Gal(b1-3)GlcNAc(b1-3)Gal(b1-4)Glc
# Outline: as §1
# [42] = target: Gal(b1-3)GlcNAc(b1-3)Gal(b1-4)GlcNAc
# Outline: as §1
# [43] = target: Gal(b1-3)[Fuc(a1-4)]GlcNAc
# Outline: as §1
# [44] = target: Gal(b1-3)[Fuc(a1-4)]GlcNAc(b1-3)Gal(b1-3)[Fuc(a1-4)]GlcNAc
# Outline: as §1
# [45] = target: Gal(b1-3)[Fuc(a1-4)]GlcNAc(b1-3)Gal(b1-4)GlcNAc
# Outline: as §1
binder,measurement,setting,value
HFR-1 (Triticum aestivum) (protein) MSPQSFTLETTTTTPAAKGSDPSYFQSAPACHEMIQHKELLLHLYAYQNVQKTPDANQAVIVESKRPECFGILAANDWTVYDGPAHNANLVAHAQGLHLGASMAKENWFICFNMVFVNQRFTGSSFKVMGDFQGTAHNGEWAIVGGTGEFAYAQGVIAFKKTQQSERNARMELHVRAMCLSFLRPLLSLGDGSAVAKIGPWGKMSGELLDIPSTPQRLERITIRHGVVIDSLAFSFIDKAGEPYNVGPWGGRRGDNKDTIELAPSEIVTEVSGTVGIFAEDNVEYNAIASLTITTNHRPYGPFGETQSTPFSVPVQDNNNIVGFFACAGKYVEALGVYVRSPVST,glycan array binding signal (z-score),[1],-0.204
same,glycan array binding signal (z-score),[2],-0.197
same,glycan array binding signal (z-score),[3],-0.033
same,glycan array binding signal (z-score),[4],-0.18
same,glycan array binding signal (z-score),[5],-0.21
same,glycan array binding signal (z-score),[6],-0.227
same,glycan array binding signal (z-score),[7],-0.107
same,glycan array binding signal (z-score),[8],0.027
same,glycan array binding signal (z-score),[9],-0.224
same,glycan array binding signal (z-score),[10],-0.165
same,glycan array binding signal (z-score),[11],-0.182
same,glycan array binding signal (z-score),[12],-0.184
same,glycan array binding signal (z-score),[13],-0.148
same,glycan array binding signal (z-score),[14],-0.224
same,glycan array binding signal (z-score),[15],-0.195
same,glycan array binding signal (z-score),[16],-0.231
same,glycan array binding signal (z-score),[17],-0.057
same,glycan array binding signal (z-score),[18],-0.127
same,glycan array binding signal (z-score),[19],0.062
same,glycan array binding signal (z-score),[20],-0.148
same,glycan array binding signal (z-score),[21],-0.064
same,glycan array binding signal (z-score),[22],-0.205
same,glycan array binding signal (z-score),[23],-0.177
same,glycan array binding signal (z-score),[24],-0.141
same,glycan array binding signal (z-score),[25],-0.19
same,glycan array binding signal (z-score),[26],-0.199
same,glycan array binding signal (z-score),[27],-0.203
same,glycan array binding signal (z-score),[28],-0.207
same,glycan array binding signal (z-score),[29],-0.22
same,glycan array binding signal (z-score),[30],-0.205
same,glycan array binding signal (z-score),[31],0.042
same,glycan array binding signal (z-score),[32],-0.136
same,glycan array binding signal (z-score),[33],0.02
same,glycan array binding signal (z-score),[34],-0.084
same,glycan array binding signal (z-score),[35],-0.2
same,glycan array binding signal (z-score),[36],-0.02
same,glycan array binding signal (z-score),[37],-0.166
same,glycan array binding signal (z-score),[38],-0.214
same,glycan array binding signal (z-score),[39],-0.241
same,glycan array binding signal (z-score),[40],-0.236
same,glycan array binding signal (z-score),[41],0.08
same,glycan array binding signal (z-score),[42],-0.241
same,glycan array binding signal (z-score),[43],-0.148
same,glycan array binding signal (z-score),[44],-0.116
same,glycan array binding signal (z-score),[45],0.161
